From PMC4336329 (PLoS ONE, 2015)
The whole screen tested about 310,000 compounds, of which about 14,000 (4.5%) showed an effect of 50% or more. Effects have a minus sign here. Some of the results follow.

Biological target: human ether-à-go-go-related gene (hERG) potassium channel (human, UniProt Q12809)
Assay: primary screen, population patch clamp on CHO cells stably expressing hERG
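Further: peak tail current of the secondary pulse compared with the same well before compound.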

Chain of human ether-à-go-go-related gene (hERG) potassium channel (Q12809 whole entry, looked up): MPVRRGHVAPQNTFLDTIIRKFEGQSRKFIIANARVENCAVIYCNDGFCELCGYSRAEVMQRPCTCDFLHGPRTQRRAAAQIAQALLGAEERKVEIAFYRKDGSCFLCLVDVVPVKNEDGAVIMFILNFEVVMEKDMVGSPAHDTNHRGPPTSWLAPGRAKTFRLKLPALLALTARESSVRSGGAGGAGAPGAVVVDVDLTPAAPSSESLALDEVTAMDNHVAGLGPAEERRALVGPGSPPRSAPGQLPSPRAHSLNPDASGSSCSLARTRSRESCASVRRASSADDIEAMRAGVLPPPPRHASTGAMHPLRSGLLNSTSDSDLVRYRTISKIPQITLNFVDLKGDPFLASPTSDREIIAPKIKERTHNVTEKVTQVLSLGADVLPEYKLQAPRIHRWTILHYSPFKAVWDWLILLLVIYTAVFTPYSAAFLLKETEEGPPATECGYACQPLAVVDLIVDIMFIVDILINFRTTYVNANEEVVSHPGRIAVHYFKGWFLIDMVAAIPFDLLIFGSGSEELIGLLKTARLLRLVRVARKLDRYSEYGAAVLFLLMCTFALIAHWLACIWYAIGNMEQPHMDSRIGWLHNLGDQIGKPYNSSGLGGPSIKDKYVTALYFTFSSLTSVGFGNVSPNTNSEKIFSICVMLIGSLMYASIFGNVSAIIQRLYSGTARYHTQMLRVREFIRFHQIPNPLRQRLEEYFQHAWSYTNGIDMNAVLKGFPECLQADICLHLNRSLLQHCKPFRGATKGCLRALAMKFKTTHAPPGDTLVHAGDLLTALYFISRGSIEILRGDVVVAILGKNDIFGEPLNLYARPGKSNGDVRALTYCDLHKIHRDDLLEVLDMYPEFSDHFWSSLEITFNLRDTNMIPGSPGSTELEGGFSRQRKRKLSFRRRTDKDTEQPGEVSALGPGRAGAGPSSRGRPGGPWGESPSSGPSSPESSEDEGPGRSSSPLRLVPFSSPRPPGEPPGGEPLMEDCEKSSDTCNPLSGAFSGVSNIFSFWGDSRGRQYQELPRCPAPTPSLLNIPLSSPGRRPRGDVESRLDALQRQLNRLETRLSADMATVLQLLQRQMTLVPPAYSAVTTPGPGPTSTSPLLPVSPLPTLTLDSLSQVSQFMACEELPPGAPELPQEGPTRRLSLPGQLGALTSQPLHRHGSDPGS

Compared with CN(CC(=O)Nc1cccc(F)c1)CC(=O)NC(c1ccccc1)c1ccccc1, C[C@@H](C(=O)O)[C@H]1C[C@]1(C)[C@H](NC(=O)OCc1ccccc1)c1ccccc1 is higher in “hERG current change (%, negative = inhibition) at 10uM” value: -29.3% for the first, 4.41% for the second.

First: CC(C)c1ccc(CN(C(=O)/C=C/c2ccco2)C2CCS(=O)(=O)C2)cc1 (centres unmarked)
Second: Cc1ccc(CNC(=O)C2CCC(CNS(=O)(=O)c3cccs3)CC2)cc1 (centres unmarked)
The “hERG current change (%, negative = inhibition) at 10uM” value of the first is higher: -13.6% for the first, -18.7% for the second.

First: CN(C)S(=O)(=O)c1ccc(Cl)c(NC(=O)CN2C(=O)NC3(CCc4ccccc43)C2=O)c1 (centres unmarked)
Second: O=C(CCCN1C(=O)c2ccccc2C1=O)Nc1ccccc1C(=O)N1CCOCC1
The “hERG current change (%, negative = inhibition) at 10uM” value of the first is lower: -18% for the first, 6.83% for the second.

Compared with O=C(C[n+]1cc(-c2ccc(Cl)cc2)n2c1CCC2)Nc1nc(-c2ccc(F)cc2)cs1.[Cl-], O=C(Nc1ccc(F)cc1)Nc1ccc(Cl)cn1 is higher in “hERG current change (%, negative = inhibition) at 10uM” value: -48.4% for the first, 0.00818% for the second.

Compared with Cc1ccc(C(C)C)cc1OCC(=O)NC1CCCCCCC1, O=C(NC1CCCCC1)c1ccc(-c2ccccc2)cc1 is higher in “hERG current change (%, negative = inhibition) at 10uM” value: -2.45% for the first, 22.5% for the second.

Going from O=C(c1cc(COc2ccc(F)cc2Cl)on1)N1CCC(c2ccncc2)CC1 to Cc1ccc2c(c1)N(CC(=O)N1CCC(C)CC1)C(=O)c1cccnc1O2, the “hERG current change (%, negative = inhibition) at 10uM” value rises from -72.5% to -11.2%.

Going from O=C(O)c1ccc(Nc2cc(Cl)c3nonc3c2[N+](=O)[O-])cc1 to CCc1nc2ccccc2c(C(=O)Oc2ccc(C(=O)OC)cc2)c1C, the “hERG current change (%, negative = inhibition) at 10uM” value falls from 18.1% to 6.97%.

Compared with O=C1c2ccccc2C(=O)N1CCCc1nc(-c2ccc(Cl)cc2)no1, O=C1c2ccccc2C(=O)N1CSc1nnnn1-c1ccccc1 is lower in “hERG current change (%, negative = inhibition) at 10uM” value: 10.4% for the first, -3.73% for the second.

Going from O=C1CSC(c2ccccc2)N1Cc1ccccn1 (centres unmarked) to CCOc1ccccc1NC(=O)C(Sc1nnnn1C)c1ccccc1 (centres unmarked), the “hERG current change (%, negative = inhibition) at 10uM” value falls from 14.9% to -21.2%.

Compared with N#C/C(=C\c1ccc(OCCN2CCOCC2)cc1)C(=O)Nc1ccc(S(N)(=O)=O)cc1, COc1ccc(C(=O)N/C(=C\c2ccc(Cl)cc2)C(=O)NCC2CCCO2)cc1 (centres unmarked) is lower in “hERG current change (%, negative = inhibition) at 10uM” value: 13.7% for the first, -38% for the second.

Going from COc1ccccc1CC(=O)Nc1ccc(-c2noc(COc3ccc(Br)cc3)n2)cc1 to CCOc1ccc(NC(=O)CN(C)S(=O)(=O)c2cccc3cccnc23)cc1, the “hERG current change (%, negative = inhibition) at 10uM” value falls from 8.35% to -5.17%.

Going from COC(=O)c1ccc(COc2cccc3c2CCN(Cc2cccc(C)c2)C3=O)o1 to Cc1cccc(N2CCN(C(=O)c3noc4c3COc3ccc(C)cc3-4)CC2C)c1 (centres unmarked), the “hERG current change (%, negative = inhibition) at 10uM” value rises from -3.41% to -2.64%.

Compared with CS(=O)(=O)Nc1ccc2c(c1)nc1n2CCOC1, CCN1CCN(S(=O)(=O)c2ccc3[nH]c(=O)oc3c2)CC1 is higher in “hERG current change (%, negative = inhibition) at 10uM” value: -3.18% for the first, 2.48% for the second.

Going from CC(=O)N1CCC(=NNC(=O)c2cccs2)CC1 to O=C(NCC(=O)N1CCCCCCC1)c1ccccc1Cl, the “hERG current change (%, negative = inhibition) at 10uM” value falls from 1.98% to 0.569%.

Compared with COc1cc(Cl)c(C)cc1NC(=O)Cc1cccs1, COc1ccc(-c2nnc(-c3cccs3)o2)cc1OC is lower in “hERG current change (%, negative = inhibition) at 10uM” value: 6.37% for the first, -19% for the second.

First: Cc1c(NC(=S)NC(=O)C2CCCCC2)c(=O)n(-c2ccccc2)n1C
Second: Cc1cc(C)nc(N2CCN(CC(=O)NCc3ccccc3)CC2)n1
The “hERG current change (%, negative = inhibition) at 10uM” value of the first is higher: 10.7% for the first, -6.67% for the second.

Going from COc1ccccc1N=c1scc(-c2ccc3c(c2)NC(=O)CO3)n1CC1CCCO1 (centres unmarked) to CN(Cc1ccc2c(c1)OCO2)C(=O)c1cc(-c2ccccc2)c(N2CCOCC2)s1, the “hERG current change (%, negative = inhibition) at 10uM” value rises from -24% to 9.1%.

First: CC(=O)Nc1ccc(S(=O)(=O)N2CCN3CCCC3C2)cc1 (centres unmarked)
Second: O=C(CN1CCN(c2ccccn2)CC1)Nc1ccc(F)c(F)c1
The “hERG current change (%, negative = inhibition) at 10uM” value of the first is higher: 12.1% for the first, -27.6% for the second.

Compared with CC1(O)C(=O)C=C2C=C(c3ccsc3)OC=C2C1=O (centres unmarked), CCC(C)(C)c1ccc2c(c1)C(=O)c1ccccc1C2=O is higher in “hERG current change (%, negative = inhibition) at 10uM” value: 2.24% for the first, 4.28% for the second.

Compared with Cc1ccc2c(c1)c(/C=C/c1cc[n+](C)cc1)c(C)n2C.[I-], COc1ccc(N(C)S(=O)(=O)c2cccc(C(=O)Nc3nc(C)c(C(C)=O)s3)c2)cc1 is higher in “hERG current change (%, negative = inhibition) at 10uM” value: -10.9% for the first, 7.14% for the second.

Going from O=C(OCC1OC(n2ccc(=O)[nH]c2=O)C(O)C1OC(=O)c1ccccc1)c1ccccc1 (centres unmarked) to c1ccc(Cn2nnnc2C(c2ccccn2)N2CCN(c3ccccc3)CC2)cc1 (centres unmarked), the “hERG current change (%, negative = inhibition) at 10uM” value rises from -67.9% to -22.4%.

Going from CN(C)c1ncc(C(=O)O)cn1 to CNC(=O)CN1C(=O)CSc2ncccc21, the “hERG current change (%, negative = inhibition) at 10uM” value falls from 12.8% to 10.4%.

Going from CCOC(=O)c1cccc(NC(=O)CCc2nnc3ccc(N4CCN(C)CC4)nn23)c1 to CN1CCN(NC(=O)c2cn(-c3ccccc3)nc2-c2cccc(Br)c2)CC1.Cl, the “hERG current change (%, negative = inhibition) at 10uM” value falls from 9.48% to -0.973%.

Compared with Cc1nc(NC(=O)CSc2ccccc2N)sc1C, Cn1ncc(SCc2ccccc2)c(Cl)c1=O is higher in “hERG current change (%, negative = inhibition) at 10uM” value: -8.67% for the first, 1.64% for the second.

Going from CCN(CC)CC(=O)N1c2ccccc2Sc2ccccc21 to COCCCNC(=O)N1c2ccccc2Sc2ccccc21, the “hERG current change (%, negative = inhibition) at 10uM” value rises from 1.42% to 4.55%.

Compared with CC(C)Oc1ccc(Oc2ccc(C(F)(F)F)cn2)cc1, O=C(/C=C/c1ccc(OCCCF)cc1)Nc1ccnc(-c2cccnc2)n1 is higher in “hERG current change (%, negative = inhibition) at 10uM” value: 10.9% for the first, 17% for the second.

Going from CCOC(=O)c1c(NC(=O)C(C)Sc2nnc(C)c(=O)[nH]2)sc2c1CCCC2 (centres unmarked) to COc1ccc(NC(=O)N(CCN2CCCC2)Cc2cc3cc(OC)c(OC)cc3[nH]c2=O)cc1, the “hERG current change (%, negative = inhibition) at 10uM” value falls from 18.5% to -4.32%.

Compared with Cn1c(=O)c2c(SCc3c(F)cccc3Cl)nc(CC(C)(C)C)nc2n(C)c1=O, CC(NC(=O)C(NS(=O)(=O)c1cccc2nsnc12)C(C)C)c1ccccc1 (centres unmarked) is lower in “hERG current change (%, negative = inhibition) at 10uM” value: 12.8% for the first, -5.01% for the second.
